Experimental data reported in PubChem BioAssay AID686979 (National Center for Advancing Translational Sciences (NCATS), 2013).
About 50,000 (12%) of roughly 420,000 compounds were called active. Inconclusive means that the source gave no clear call. Such entries were picked first, then a sample of the others. Calls come from the whole dose curve; as a rule, active = well fitted inhibition curve with a large enough effect; inconclusive = small, poorly fitted or top-dose-only effect; inactive = flat fitted curve, though single readings scatter. Potencies of inconclusive entries are doubtful fits and often do not repeat.

Test: qHTS for Inhibitors of human tyrosyl-DNA phosphodiesterase 1 (TDP1): qHTS in cells in presence of CPT; note: nearly all actives have a fitted effect of over 55% in size
Details: chicken DT40 Tdp1-/-;hTDP1 cells + 20 nM CPT, ATP luminescence, 48 h; activity change, negative = growth inhibition: at 46.2 µM (top of the series) unless noted
Summary of the method: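 Chicken DT40 Tdp1-/- cells stably complemented with human TDP1 were seeded at 400 cells/well in medium containing 20 nM camptothecin, exposed to pin-transferred compounds, and grown at 37 °C for at least 48 hr. Viability was read as ATP luminescence.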
% is set by controls: 0 for no effect and ±100 for the full control effect; potency is the fitted concentration of half-maximal effect; tags give direction and shape of the fitted curve.

SMILES | Potency | activity change, negative = growth inhibition
Cc1ccccc1Nc1cc(C(=O)NCCc2ccc(Cl)cc2)c2ccccc2n1 | inconclusive: 29.1 µM [inhibitor, single point] | 
CCc1cc(C(=O)Nc2nc(-c3ccccn3)cs2)sc1C | active: 4.61 µM | 
COc1ccc(O)c(/C=C2/SC(=S)N(Cc3ccccc3)C2=O)c1 | inconclusive: 18.4 µM [inhibitor, single point] | 
CCN(CC)S(=O)(=O)c1ccc(Cl)c(C(=O)NC2CCN(Cc3ccccc3)CC2)c1 | active: 16.4 µM | 
COc1cccc(NC(=O)CN(C)C(=O)/C=C/c2ccc3ccccc3n2)c1 |  | inactive: 5.73%
Cc1cc(N2CCN(c3ccc(F)cc3)CC2)nc(-c2ccccc2)n1 | active: 9.2 µM | 
CC(=O)c1ccc(NS(=O)(=O)c2ccc(N)cc2)cc1 | inconclusive: 20.6 µM [inhibitor, partial curve, poor fit] | 
COC(=O)Cc1c(C)c2ccc3c(c2oc1=O)CN(Cc1ccccc1OC)CO3 | inconclusive: 18.4 µM [inhibitor, single point] | 
COc1ccc(C(=O)Nc2cccc3nc(C)ccc23)cc1OC | inconclusive: 29.1 µM [inhibitor, single point] | 
COc1ccc(NC(=O)N2CCCC(c3nc(-c4ccc(OC)cc4)no3)C2)cc1 (stereo not drawn) | inconclusive: 29.1 µM [inhibitor, single point] | 
Cc1ccc2nc(-c3ccc(O)c(O)c3)cn2c1 | inconclusive: 23.1 µM [inhibitor, single point] | 
CC(C)(C)CN1CCN(CCCc2ccccc2)C(CCO)C1 (stereo not drawn) |  | inactive: -25.1%
CCC(=O)N1CCc2cc(Br)cc(S(=O)(=O)N3CCCC(C(=O)NCc4ccc(OC)cc4)C3)c21 (stereo not drawn) | inconclusive: 23.1 µM [inhibitor, single point] | 
CC(CNC(=O)Cn1c(-c2cccs2)cc2ccccc21)c1ccccc1 (stereo not drawn) | active: 20.6 µM | 
Cc1oc(-c2ccc(Cl)cc2)nc1CSCC(=O)NCc1ccccc1Cl | inconclusive: 29.1 µM [inhibitor, single point] | 
O=S(=O)(CC(CN1CCCCC1)N1CCCCC1)c1ccccc1 (stereo not drawn) | active: 7.31 µM | 
Cc1oc(-c2ccccc2Cl)nc1CSc1nc2c(c(=O)[nH]1)CCCC2 | active: 13 µM | 
CCCC(=O)Nc1c2c(nc3ccccc13)N(c1ccccc1)CC2 | inconclusive: 29.1 µM [inhibitor, single point] | 
O=C(c1cc2ccccc2o1)N(C1CC1)C1(C(=O)Nc2ccccc2)CCCC1 | inconclusive: 29.1 µM [inhibitor, single point] | 
Cc1ccc(/C=N/N=C/c2ccc(C)s2)s1 |  | inconclusive: -31.2% [inhibitor]
Cc1ccc(Cl)cc1N1CCN(CCCNC(=O)c2nnc(Cc3cccc(Cl)c3)o2)CC1 | active: 20.6 µM | 
CCOC(=O)C1=C(O)/C(=C/c2cc(C)n(-c3ccccc3)c2C)N=C1C | inconclusive: 20.6 µM [inhibitor, single point] | 
Cc1cc(C)cc(Cn2c3ccc(NC(=S)NCc4ccccc4F)cc3c(=O)n2C)c1 | inconclusive: 20.6 µM [inhibitor, single point] | 
CN(CCC#N)S(=O)(=O)c1ccc2[nH]cc(C(=O)NCCc3ccccc3)c(=O)c2c1 | inconclusive: 23.1 µM [inhibitor, single point] | 
O=C(Nc1cccc(F)c1)c1cccc2c1C(=O)N(C1CCCCC1)C2 | inactive | 

SMILES | Potency | activity change, negative = growth inhibition
O=C1c2ccccc2C(=O)N1Cc1cnc(N2CCN(c3ccccc3)CC2)s1 | active: 8.2 µM | 
CCCOc1ccc(C2c3c(-c4ccccc4O)n[nH]c3C(=O)N2CCCOCC)cc1OCC (stereo not drawn) | active: 23.1 µM | 
N#Cc1cccc(NC(=O)c2cc(C3CCCCN3C(=O)CCc3ccccc3)on2)c1 (stereo not drawn) | inconclusive: 25.9 µM [inhibitor, single point] | 
CC(C)n1cc(CN2CCC(C(=O)Nc3cccc(-c4cccc(Cl)c4)c3)CC2)cn1 | inconclusive: 29.1 µM [inhibitor, single point] | 
COc1ccc2oc(=O)c(C(=O)NCc3ccccc3)cc2c1 | inconclusive: 11.6 µM [inhibitor, single point] | 
Cc1ccc(C2C3C(=O)N(c4ccc(C)cc4)C(=O)C3N3CCCN23)cc1 (stereo not drawn) |  | inactive: -7.03%
Cc1cccc(OCCCC(=O)NCc2ccco2)c1 |  | inactive: -27.9%
CCC(=O)N1CCCc2cc(S(=O)(=O)N3CCC(C(=O)Nc4ccccc4CC)CC3)ccc21 | active: 25.9 µM | 
Clc1ccc(-c2nc3ccc(Cl)cn3c2Cc2cccc(Cl)c2)cc1 | inconclusive: 29.1 µM [inhibitor, single point] | 
CCc1nc2ccc(C(=O)NCCCn3ccnc3)cn2c1N(C)Cc1nccs1 |  | inactive: -2.13%
CCOC(=O)C1(Cc2ccccc2)CCN(Cc2cccc3nccnc23)CC1 | inconclusive: 25.9 µM [inhibitor, single point] | 
C[C@H]1CN([C@@H](C)CO)C(=O)Cc2cc(NC(=O)CCC(F)(F)F)ccc2O[C@H]1CN(C)C(=O)Nc1ccc(F)cc1 |  | inactive: -1.3%
O=C(NCc1cc([N+](=O)[O-])ccc1O)c1cc(-c2ccncc2)nc2ccccc12 |  | inactive: -24.9%
COc1ccc(S(=O)(=O)N(Cc2cc3ccc(OC)cc3[nH]c2=O)CC2COCCO2)cc1 (stereo not drawn) | inconclusive: 29.1 µM [inhibitor, single point] | 
O=C(Cn1cnc2ccccc21)OCC(=O)N1CCCCC1 |  | inactive: 6.05%
CCOc1ccc(S(=O)(=O)NCc2ccc(Cl)cc2)c2cccnc12 | inconclusive: 13 µM [inhibitor, partial curve, poor fit] | 
COc1ccc(/C=C2\SC(=O)N(CCCC(=O)Nc3ccc(C(=O)O)cc3)C2=O)cc1OC |  | inactive: -1.08%
CC1(c2nnnn2Cc2ccccc2)CCC(=O)N1Cc1cccs1 (stereo not drawn) |  | inactive: -2.3%
Cc1ccc2nc(NCc3ccccc3)c(C=NCc3ccccc3)c(=O)n2c1 |  | inactive: 0.556%
c1ccc(Cn2nnc3c(N4CCCCC4)ncnc32)cc1 | inconclusive: 10 µM [inhibitor, partial curve, poor fit] | 
Cc1cc(C)cc(Nc2nnc(-n3nc(C)cc3C)c3ccccc23)c1 | inconclusive: 29.1 µM [inhibitor, single point] | 
CS(=O)(=O)N1CCN(c2nc(-c3ccc(F)cc3)cs2)CC1 | inconclusive: 23.1 µM [inhibitor, single point] | 
CS(=O)(=O)Nc1ccccc1-c1ccc2nccn2c1 |  | inactive: -11.6%
CC[C@H](C)[C@@H](NC(=O)O[C@@H]1C(=O)c2cc(Br)ccc2O[C@H]1c1cccc(OC)c1)C(=O)OC | inconclusive: 25.9 µM [inhibitor, partial curve, poor fit] | 
CN1CCc2nc3sc(C(=O)Nc4cccc(C#N)c4)c(N)c3cc2C1 | active: 20.6 µM | 

SMILES | Potency | activity change, negative = growth inhibition
CN1CCN(C(=O)C23CCC(C)(c4nc5ccccc5nc42)C3(C)C)CC1 (stereo not drawn) |  | inactive: -14.2%
COC(=O)C12CCC(C)(c3nc4ccccc4nc31)C2(C)C (stereo not drawn) |  | inactive: 1.16%
CC1=CC(=O)C2=C(C)C[C@H](OC(=O)Cc3ccccc3)C3[C@H](OC(=O)[C@H]3C)C12 (stereo partly drawn) |  | inconclusive: -44.3% [inhibitor] [at 9.04 µM]
CC(CNC(=O)CN1C(=O)NC2(CCCCC2C)C1=O)c1ccccc1 (stereo not drawn) |  | inactive: 0.631%
CCCOc1ccc(NC(=O)CC2C(=O)N(c3ccc(Cl)cc3)C(=O)N2CCc2ccncc2)cc1 (stereo not drawn) | inconclusive: 18.4 µM [inhibitor, single point] | 
Cc1cccc(-n2nnnc2SCc2csc(-c3ccccc3)n2)c1 |  | inactive: -9.92%
COc1cc2cnc(-c3ccccc3F)cc2cc1OC |  | inactive: -25%
O=C(O)/C=C\C(=O)NCc1cccnc1 |  | inactive: -3.18%
C=CCCCCCCCCCCCC(O)CC(O)COC(C)=O (stereo not drawn) |  | inactive: -25.8%
COc1ccc(C(=O)C2CCCN(C(=O)c3noc4c3CCCC4)C2)c(C)c1 (stereo not drawn) | inconclusive: 13 µM [inhibitor, single point] | 
Cc1cccc(OCC(=O)Nc2ccc(Cl)c(-c3nc4ccccc4[nH]3)c2)c1 | inconclusive: 20.6 µM [inhibitor, single point] | 
CCOc1ccc(NC(C)=O)cc1[N+](=O)[O-] |  | inactive: 14.2%
CCN1C(=O)[C@H]2[C@@H](c3ccc(C)cc3)N3C(=O)N(c4ccc(C(F)(F)F)cc4)C(=O)[C@@]3(Cc3ccccc3)[C@H]2C1=O | inconclusive: 23.1 µM [inhibitor, single point] | 
NS(=O)(=O)c1ccc(NC(=S)NCCc2ccccc2)cc1 |  | inactive: -29.6%
CCN1CCN(Cc2c(O)ccc3oc(C)c(C(=O)Nc4ccc(C)cc4C)c23)CC1 | inconclusive: 23.1 µM [inhibitor, single point] | 
CC(CNCC1CCCO1)COc1cccc2ccccc12 (stereo not drawn) | inconclusive: 18.4 µM [inhibitor, single point] | 
CCN(CC(=O)Nc1c(C(=O)OC)[nH]c2ccc(Cl)cc12)c1ccc2c(c1)OCO2 | inconclusive: 18.4 µM [inhibitor, single point] | 
c1ccc2[nH]c(NCc3ccc4c(c3)OCO4)nc2c1 |  | inactive: -1.2%
COc1cc(NC(=O)c2ccc([N+](=O)[O-])o2)ccc1NC(=O)c1ccco1 | active: 0.651 µM | 
Cc1ccc(C(=O)Nc2ccc(S(=O)(=O)N3CCCC3)cc2)s1 | inconclusive: 25.9 µM [inhibitor, single point] | 
CCn1c(=N)n(CC(=O)c2cccc(OC)c2)c2ccccc21 | inconclusive: 16.4 µM [inhibitor, single point] | 
NNC(=S)Nc1cccc(-c2n[nH]c(=S)o2)c1 |  | inactive: -7.78%
Cn1c(OCc2ccc3c(c2)OCO3)nc2c1c(=O)n(Cc1ccc(Cl)c(Cl)c1)c(=O)n2C | inconclusive: 16.4 µM [inhibitor, single point] | 
